The values that follow come from ChEMBL document CHEMBL4888484, “Replenishing the malaria drug discovery pipeline: Screening and hit evaluation of the MMV Hit Generation Library 1 (HGL1) against asexual blood stage Plasmodium falciparum ,using a nano luciferase reporter read-out” (2022).

Hit rate of the full screen: of about 4,800 compounds, about 410 (8.5%) showed an effect of 50% or more. Some of the results follow.

The test system of this experiment is Plasmodium falciparum. Kind of experiment: Confirmatory screen in NF54 pLDH assay, in single point, at 2uM, 72h. Format: functional, Erythrocyte. As to conditions: timepoint 72 hour.
Take `O=C(NCCc1ccccc1)N1CC[C@@]2(C1)Nc1cccnc1N=C2NC1CCCC1`: the “% Inhibition” value was -5%.

As to `Cc1nc2cc(OCc3ccccc3)ccc2n1C`, the “% Inhibition” value was 11%. Turning to `Cc1ccc(Cn2ccn3nc(-c4ccc5c(c4)OCO5)cc3c2=O)cc1C`, the “% Inhibition” value is -7%.

As for `CC(C)N1CC[C@H](c2nnc3n2CCN(S(=O)(=O)c2ccccc2Cl)C3)C1`, the “% Inhibition” value was 12%. Regarding `CN(C)S(=O)(=O)N(CCN1CCCC1)[C@H]1CCN(C(=O)CCCc2ccccc2)C1`, the “% Inhibition” value was 9%.

With `Cc1cc(C)nc(-n2nc(-c3ccc(Cl)cc3)c3c2NC(=O)C[C@@H]3c2ccc3c(c2)OCO3)n1`, the “% Inhibition” value is on record as 2%. With `CCC(C)(C)NCC(=O)Nc1cc(F)ccc1F`, the “% Inhibition” value is -18%. Take `COc1ccc2cc3n(c2c1)C[C@](C(=O)NC1CCCCCC1)(c1ccccc1)N(Cc1cccc(C)c1)C3=O`: the “% Inhibition” value is listed as -15%. On to `O=C(Nc1ccccc1)c1cc(C(=O)Nc2ccccc2)cc(C(=O)Nc2ccccc2C(=O)O)c1`, for which the “% Inhibition” value was determined as 11%. As to `CC1CCN(C[C@@H](O)CNc2nnc(C(F)(F)F)s2)CC1`, the “% Inhibition” value is reported as 1%.

In the case of `CCN1CC(=O)N[C@H]2CN(C(=O)CCn3ccnc3C)CC[C@@H]2OCc2cccc(c2)Oc2cc(OC(C)C)cc(c2)C1=O`, the “% Inhibition” value came out at 10%. To `CN(Cc1ccccc1)C(=O)C[C@H]1CCN(C(=O)NC2CCCCC2)C1` belongs 7%; to `CC[C@H]1Cn2c(C(=O)NCc3cccs3)cc3c(Cl)ccc(c32)O1`, -3%. Regarding `O=C(CCn1ccc2cc(S(=O)(=O)N3CCCCC3)ccc21)N1CCN(c2ccccc2F)CC1`, the “% Inhibition” value is given as 10%. The figure for `O=C(Nc1ccccc1)Nc1nc2c(s1)CCCCCCCCCC2` is -9%; for `O=C(C[C@H]1CCc2nnc(C3CCOCC3)n2CC1)Nc1ccc(Cl)cc1F` it is -2%; for `O=C(c1cc(Br)c(C(=O)N2CCCC2)cc1Br)N1CCCC1` it is -1%. To `C=Cn1cc[n+](CC(=O)c2ccc(-c3ccccc3)cc2)c1` belongs 51%; to `Cc1ncccc1C(=O)Nc1cccc(Oc2cccnn2)c1`, 4%. Turning to `O=C(NCc1ccco1)c1cc2c(Cl)ccc3c2n1CCO3`, the “% Inhibition” value worked out at 12%. In the case of `O=C(NCc1c(O)ccc2c1CCCC2)c1ccc2nncn2c1`, the “% Inhibition” value is listed as -13%. Take `COc1ccc(C(=O)n2nc(Nc3ccccc3Cl)cc2Nc2ccccc2Cl)cc1`: the “% Inhibition” value is 12%. As to `CCNc1ccnc(NCc2nc(-c3cccc(F)c3)c(-c3ccccn3)[nH]2)n1`, the “% Inhibition” value is 22%. Turning to `CS(=O)(=O)N1CCc2cc(S(=O)(=O)N3CCC(c4ccccc4)CC3)ccc21`, the “% Inhibition” value was 10%. The figure for `CN1CCC(NC(=O)c2cnc(-c3ccc4c(c3)OCO4)nc2Nc2ccc(F)cc2)CC1` is 20%; for `Cc1cc(OC(=O)[C@H]2CC(=O)N(c3ccc4ccccc4c3)C2)c(C(C)C)cc1NC1=NS(=O)(=O)c2ccccc21` it is 1%; for `Cc1ccc(NC(=O)CC2CC3CCC2C3)c(Br)c1` (stereo not given) it is 10%.

Turning to `C[C@H]1CCCCN1C(=O)CN1CCN(c2nccn3cnnc23)CC1`, the “% Inhibition” value was determined as 7%. On to `O=C(CCCc1ccccc1)Nc1cc(C2CC2)nn1-c1nc(-c2ccccc2)cc(=O)[nH]1`, for which the “% Inhibition” value was determined as 36%. As for `COc1ccc([C@H](CNC(=O)c2ccccc2)N2CCC(c3ccccc3)=N2)cc1`, the “% Inhibition” value was -10%. The figure for `CCN(C)CCN(CC)C(=O)CCc1cc2c(n1-c1ccc(OC)cc1)-c1ccccc1CC2` is 14%. Turning to `COc1ccc(S(=O)(=O)N2CCC(C)(C(=O)NCc3ccc4c(c3)OCO4)CC2)cc1OC`, the “% Inhibition” value was 5%. The figure for `CC(C)(C)OC(=O)N1C2CCC1CC(CC(=O)NC1CCCC1)C2` (stereo not given) is 10%; for `N#Cc1cc(N2CCc3ccccc3C2)nc2ccccc12` it is 8%; for `CCCCCNC(=O)NCc1ncoc1C` it is 4%.

Take `Cn1ccnc1[C@@H]1CCCN1S(=O)(=O)c1c2c(nn1C)CCCC2`: the “% Inhibition” value is reported as 13%. The figure for `CCCn1c(C)cnc1C1CN(S(=O)(=O)c2cc(Cl)ccc2Cl)C1` is 6%. As for `CCCCn1nc(NC(=O)c2cc(C3CC3)[nH]n2)cc1C`, the “% Inhibition” value was 6%.

With `O=C(O)[C@@H]1CN(S(=O)(=O)c2cc3ccccc3o2)c2ccccc21`, the “% Inhibition” value amounted to 12%. `Cc1cc(C(=O)Nc2cc(Br)c(=O)n(C)c2)no1`: the “% Inhibition” value is -9%.

As for `CN(Cc1nccn1C)C(=O)c1cc2ccccc2[nH]1`, the “% Inhibition” value was found to be 15%.

Consider `C[C@@H](CNC(=O)c1ccc(Cl)c(-n2cnc3cccnc32)c1)c1ccccc1`, for which the “% Inhibition” value stood at 3%. Consider `N#Cc1nc(COc2cccc(Cl)c2)oc1NC[C@H]1CCCO1`, for which the “% Inhibition” value is 9%.

`O=S(=O)(N[C@@H](Cn1cnc2ccccc21)c1ccc(F)cc1)c1cc(F)c(F)cc1F`: the “% Inhibition” value is listed as 7%. In the case of `C#CC[C@H](OC(=O)c1nc(-c2cnn(C)c2)oc1C)C(C)(C)C`, the “% Inhibition” value was -13%. The figure for `CC(C)C[C@H](N)C(=O)N1CC2CCCCC2C1` (stereo not given in full) is -19%. To `CCCN(CCC)C(=O)CCC(=O)N[C@]1(C(F)(F)F)CCc2ccccc21` belongs 11%. `Cc1c([C@@H](NCc2ncccc2O)C(C)C)oc2ccccc12`: the “% Inhibition” value is listed as 94%.

In the case of `COc1ccc(OC)c([C@H](C)NC(=O)N2CCS(=O)(=O)CC2)c1`, the “% Inhibition” value is recorded as 13%.

Take `Cc1c(C)c2ccc(NC(=O)c3cc4ccccc4o3)cc2[nH]c1=O`: the “% Inhibition” value is reported as 78%. To `Cc1ccc(S(=O)(=O)c2ccc3c(c2)Oc2ccccc2N3)cc1` belongs -16%. `O=C(c1csc(C(=O)N2CCCC2)n1)N1CCN(Cc2ccccc2)CC1`: the “% Inhibition” value was -4%. Regarding `CCC(=O)OCCN1CCN(CCN(C(=O)CC)c2ccc(C3CCCC3)cc2)CC1`, the “% Inhibition” value is 3%.

For `Cc1ccc(O)c(CNc2ccc3c(c2)OCC3(C)C)n1`, the “% Inhibition” value is given as -19%. Turning to `Cc1c(Cl)c(-c2nnc(-c3cccc(C(F)(F)F)c3)o2)nn1C`, the “% Inhibition” value is on record as -23%. To `CN(CC(C)(CO)CO)c1ncc(-c2ccccc2)s1` belongs 10%. As for `Cc1cc(=O)[nH]c(N2CCCCCC2)n1`, the “% Inhibition” value is given as 8%.

For `Cc1[nH]c2ccccc2c1C1CCN(C(=O)c2ccccc2Br)CC1`, the “% Inhibition” value was 6%.

On to `O=C(Cc1ccccc1F)N1CC(n2cnnc2C2CCOCC2)C1`, for which the “% Inhibition” value is on record as -12%.

With `O=C(O)Cc1ccc(OCc2nc(-c3ccsc3)no2)cc1`, the “% Inhibition” value worked out at 5%. Turning to `O=C(c1ccoc1)N1CCC[C@H](C(=O)N2CCN(C(c3ccccc3)c3ccccc3)CC2)C1`, the “% Inhibition” value stood at 6%. With `CCc1cc(N2CCC(N3C(=O)[C@H]4CCCN4C3=O)CC2)ncn1`, the “% Inhibition” value turned out to be 6%.

Take `CCCN1CCC(NCc2ccc(-c3cccc(Cl)c3Cl)o2)CC1`: the “% Inhibition” value is 98%. `CC(=O)Nc1ccccc1N(S(=O)(=O)c1ccc2ccccc2c1)S(=O)(=O)c1ccc2ccccc2c1`: the “% Inhibition” value is reported as -1%. For the molecule `Cc1cccc(-n2c(=O)c3sccc3n(CC(=O)NCc3ccc(F)cc3F)c2=O)c1C`, the “% Inhibition” value is 12%. `Cn1ccnc1C1CC(NC(=O)c2cc3c(s2)CCC3)CCO1` (stereo not given): the “% Inhibition” value is listed as 13%. Regarding `Cc1cnc(C(=O)N2CCC[C@H]2c2nc(C3CCOCC3)no2)cn1`, the “% Inhibition” value is listed as 14%.

`CC(C)c1nc(C(=O)Nc2[nH]c(=O)ncc2F)cs1`: the “% Inhibition” value is 83%. Take `CN1CC[C@H](CN(C)Cc2ccc3cc(O)ccc3c2)C1`: the “% Inhibition” value was determined as 36%. As to `CC(C)(CNC(=O)[C@@H]1CCC(=O)N1)C1=CCCC1`, the “% Inhibition” value was 12%.

In the case of `O=c1[nH]c2nccnc2c(=O)n1Cc1ccc(F)cc1`, the “% Inhibition” value was -19%.

`CCn1cc(CN2C(=O)C3CCCCC3C2=O)c(C)n1` (stereo not given): the “% Inhibition” value worked out at 0%. Regarding `O=c1c2ccccc2nnn1-c1ncc(C(F)(F)F)cc1Cl`, the “% Inhibition” value is reported as -5%.

Turning to `C=C1CC2C(CC1OC(=O)NC(=O)CN1CCCCC1)C2(C)C` (stereo not given), the “% Inhibition” value is -12%. For `c1ccc(COc2nsnc2N2CCOCC2)cc1`, the “% Inhibition” value is on record as 6%.

Consider `Cc1[nH]nc2c1C1(CCCCC1)CC(=O)N2`, for which the “% Inhibition” value is on record as -5%.

Regarding `CC(C)(C)OC(=O)N1C[C@@H](O)CC1=O`, the “% Inhibition” value is recorded as -7%. Take `CCOC(=O)N1CCc2c(nc(-c3ccc(F)cc3)n(CC(=O)Nc3c(C)cc(C)cc3C)c2=O)C1`: the “% Inhibition” value was determined as 6%.

Consider `Cc1ccc(O)c(CNCC2(c3ccccc3Cl)CCOCC2)n1`, for which the “% Inhibition” value came out at 98%. For `Cc1ccc(-c2nn3nc(COc4cccc5c4OC(C)(C)C5)nc3s2)cc1`, the “% Inhibition” value is listed as 13%. As for `O=C(OCc1nccn1Cc1ccccc1)c1cccc2cc[nH]c12`, the “% Inhibition” value is listed as 11%.

Consider `CN1c2ccccc2C(=O)N[C@@H]1c1ccccc1OCc1ccccc1`, for which the “% Inhibition” value is -4%. With `CC(C)c1nc(C2CN(C(=O)Nc3ccc(F)c(Cl)c3)C2)n(C)n1`, the “% Inhibition” value is on record as 4%. `C=CCNC(=O)CN1CCN(CC(=O)N(Cc2ccccc2)[C@@H](C)C2CC2)CC1`: the “% Inhibition” value came to 12%. Take `Cc1cnc(Cc2ccccc2)n1CCNC(=O)c1cnn(C)c1`: the “% Inhibition” value worked out at 12%.

On to `CS(=O)(=O)CC1(CON=C(N)c2cccnc2)CC1`, for which the “% Inhibition” value was 8%. With `CCCn1c(C)cnc1C1CN(S(=O)(=O)c2ccc(C)c(F)c2)C1`, the “% Inhibition” value is recorded as -3%. Consider `CCCN(Cc1nnc(-c2ccccc2)o1)S(=O)(=O)c1cnn(C(F)F)c1C`, for which the “% Inhibition” value turned out to be 0%.

Regarding `Cn1cc(-c2noc(-c3cccc(C#N)c3)n2)ccc1=O`, the “% Inhibition” value is on record as 8%. For the molecule `CCOC(=O)c1nc(-c2ccc(N3CCCCC3)nc2)no1`, the “% Inhibition” value is 13%. On to `COc1cc(N2CCn3c(nc4ccccc43)C2)ccc1NC(=O)c1ccc(C)cc1`, for which the “% Inhibition” value is on record as -23%. Take `Cc1cccc(C)c1OCC(=O)Nc1ccc(-c2nc3cc4ccccc4cc3[nH]2)cc1`: the “% Inhibition” value was found to be 18%. Regarding `Cc1ccc(C)n1-c1ccc(Cl)c(C(=O)NC[C@H]2COCCO2)c1`, the “% Inhibition” value is -3%. In the case of `CC(C)(C(=O)Nc1nccs1)c1cccnc1`, the “% Inhibition” value was determined as 10%. Regarding `O=C(NCc1ccccc1F)C1CCN(c2cncnc2N2CCCC2)CC1`, the “% Inhibition” value is given as 19%. `COc1ccc2oc(-c3ccc(CNC(=O)c4ccc(C)cc4)cc3)nc2c1`: the “% Inhibition” value is on record as 13%. For the molecule `Cc1nn(C)c(C)c1-c1cc(C(=O)Nc2cc(F)ccc2F)c2c(C)nn(C)c2n1`, the “% Inhibition” value was 2%. In the case of `Cc1ccccc1-c1nc2cc(NS(=O)(=O)c3ccccc3)ccc2o1`, the “% Inhibition” value is on record as 6%.

Consider `Fc1cccc(Br)c1C1CC(c2cccnc2)Nc2ncnn21` (stereo not given), for which the “% Inhibition” value is reported as -8%.

In the case of `O=S(=O)(c1ccccc1)c1cnc2c(Br)c(-c3ccccc3)nn2c1-c1ccccc1`, the “% Inhibition” value is on record as -20%.
